Results published in article PMC7819943, “Rice protein-binding microarrays: a tool to detect cis-acting elements near promoter regions in rice”.
Some of the results follow.

Target: T1, OsWOX13 (Oryza sativa, UniProt Q5QMM3 1-267)
T1 sequence: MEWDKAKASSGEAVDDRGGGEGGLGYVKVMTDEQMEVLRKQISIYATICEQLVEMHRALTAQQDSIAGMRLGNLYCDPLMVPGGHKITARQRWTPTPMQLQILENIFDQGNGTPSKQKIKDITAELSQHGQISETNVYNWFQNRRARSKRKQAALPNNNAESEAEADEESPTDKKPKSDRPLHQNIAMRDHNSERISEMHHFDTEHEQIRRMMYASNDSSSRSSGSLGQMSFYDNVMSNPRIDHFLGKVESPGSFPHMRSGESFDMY
Experiment: protein-binding microarray (RPBM); PBS, 2% BSA, 51.3 ng/ul salmon testes DNA, 50 uM zinc acetate, 200 nM TF, 25 C, 1 h; high values mean tight binding
Details: protein: recombinant; tags: N-terminal polyhistidine and DsRed monomer fusion (pET32a); label: CyDye5-dUTP incorporated in the synthesized complementary strand; 3' TTTTT single-stranded linker to array surface; dsDNA, one strand shown
Summary of the method: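 Binding signal here means per-feature fluorescence intensity in arbitrary units. The values were read on an Axon 4000B scanner after a custom Agilent array, double-stranded by primer extension with Cy5-dUTP, was incubated with 200 nM protein at 25 °C for 1 h in PBS with 2% BSA, salmon testes DNA and 50 µM zinc acetate, then washed. The proteins were transcription factors with an N-terminal polyhistidine tag and DsRed, expressed in E. coli BL21-CodonPlus and purified on Ni–NTA.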

| Sequence | binding signal |
| --- | --- |
| AATAATTACAACAAGAATTGAGGAAGTAGCTTCAATAGCTCGGAGTCACCTAGTGCAG | 16900 fluorescence intensity (a.u.) |
| TCTGTAAACTGTCCGGCAATTAGAAATTCCCATCCTTAGCCGGAGTCACCTAGTGCAG | 3220 fluorescence intensity (a.u.) |
| TGTAATTTAGTGTAATGAAAATATAGCATGTCAAGATATTCGGAGTCACCTAGTGCAG | 9040 fluorescence intensity (a.u.) |
| CAAAATAAATTAATCTCATATTAGATATGACATATTTCAGCGGAGTCACCTAGTGCAG | 16400 fluorescence intensity (a.u.) |
| CACAATTAAATCATTTTGATTCCAATTTTGTAGAATGAACCGGAGTCACCTAGTGCAG | 13600 fluorescence intensity (a.u.) |
| ATTATTGAATTGGCTTTTGAACACTTGCAGCAAACACATTCGGAGTCACCTAGTGCAG | 5730 fluorescence intensity (a.u.) |
| AATAAAATAATAATTATATAATTTTAGTAAGATAATTGAACGGAGTCACCTAGTGCAG | 19200 fluorescence intensity (a.u.) |
| TAAAATTTTATCTCTAATGATATCTTAACCGTTTTATAAGCGGAGTCACCTAGTGCAG | 5750 fluorescence intensity (a.u.) |
| TCCCGTGTAAAAGTTGATTGATTATTGTACTATGCTAATGCGGAGTCACCTAGTGCAG | 35400 fluorescence intensity (a.u.) |
| GGCAAATAGTCAATTGTGGGCTGTTAAATTACTGTCGCGACGGAGTCACCTAGTGCAG | 5040 fluorescence intensity (a.u.) |
| TTTAGATTTTCAAACTTAATTTTGAGATATTTTCAATGGACGGAGTCACCTAGTGCAG | 10300 fluorescence intensity (a.u.) |
| TACTTAATTAATCAAATGCTAATCACATTTCTCGTTTTAACGGAGTCACCTAGTGCAG | 29400 fluorescence intensity (a.u.) |
| GTAGCATAATTGTAAATTGTACTTGTTTATGTTCATAATGCGGAGTCACCTAGTGCAG | 6010 fluorescence intensity (a.u.) |
| ATACAGAAATAATTTCAATCTAGCCATCTAGGTACATGTTCGGAGTCACCTAGTGCAG | 11500 fluorescence intensity (a.u.) |
| CATCGATCAATCAGTGAGCAGCGACAGGAGTAGCACGACGCGGAGTCACCTAGTGCAG | 22600 fluorescence intensity (a.u.) |
| TATATGATTTGTGCAATTTAGACCACAATACATAGGGTTACGGAGTCACCTAGTGCAG | 38100 fluorescence intensity (a.u.) |
| ATAATACAAATATTAGCCTCTACATCCAAAATACATGTGACGGAGTCACCTAGTGCAG | 7480 fluorescence intensity (a.u.) |
| CAGTTAACTAAACAATGTGCTATGGTTTCTGTCATTCCGTCGGAGTCACCTAGTGCAG | 3650 fluorescence intensity (a.u.) |
| TTGACTGTAATTATCTAAAGTCTCAAGCACGTACACTATGCGGAGTCACCTAGTGCAG | 26300 fluorescence intensity (a.u.) |
| ACCTCTTCATCATATTTAAATCAAAGAAAACGATTTTCTTCGGAGTCACCTAGTGCAG | 4320 fluorescence intensity (a.u.) |
| CAACGCATTGAATGAATCAATCAATCAACTCATCAAATCTCGGAGTCACCTAGTGCAG | 33400 fluorescence intensity (a.u.) |
| GCGTGGAGTGTCAATTAGTGGTTATTGGTGGTCTAAGGAGCGGAGTCACCTAGTGCAG | 17100 fluorescence intensity (a.u.) |
| ATTTAATTGCAACGAATTTAATGGTGTAATCGGATCATGACGGAGTCACCTAGTGCAG | 31000 fluorescence intensity (a.u.) |
